Among all 340,000 compounds or so, about 6,900 (2%) were called active. No stated cut-off is given here; in the data, active means inhibition above about 30%; inactive means below that, where a call was filed. Only a part is listed here, and it is no random draw. Where no call is shown, the source filed none.
molecular target: D(2) dopamine receptor (Homo sapiens) (UniProt P14416); assay: HTS Assay for Allosteric Antagonists of the Human D2 Dopamine Receptor: Primary Screen for Antagonists; settings: HEK293 TREx D2 cells, calcium flux, dopamine EC80; at 10 µM; stronger effect = higher value; further: 0% is about no effect
Method in brief: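 Measurement of antagonist activity uses fluorescent calcium dye in inducible HEK293 T-REx D2 cells: 10 s baseline, compound addition with 180 s read, EC80 dopamine addition with a further 180 s read.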

UniProt P14416, sequence (P14416 whole entry, looked up): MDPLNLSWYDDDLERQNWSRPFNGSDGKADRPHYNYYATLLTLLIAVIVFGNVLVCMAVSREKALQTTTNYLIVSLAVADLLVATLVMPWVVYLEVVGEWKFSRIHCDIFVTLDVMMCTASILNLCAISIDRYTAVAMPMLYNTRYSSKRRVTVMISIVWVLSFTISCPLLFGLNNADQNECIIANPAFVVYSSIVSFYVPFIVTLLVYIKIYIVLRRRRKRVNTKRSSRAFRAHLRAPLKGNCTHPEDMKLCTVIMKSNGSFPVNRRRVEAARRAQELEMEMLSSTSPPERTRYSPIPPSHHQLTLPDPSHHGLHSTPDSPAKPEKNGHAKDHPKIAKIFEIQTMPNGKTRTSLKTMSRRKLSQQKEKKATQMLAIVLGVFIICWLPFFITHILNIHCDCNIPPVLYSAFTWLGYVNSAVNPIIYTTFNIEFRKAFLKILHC

SMILES	inhibition
Cc1cccc(S(=O)(=O)c2cn(Cc3ccccc3)c3cc(N4CCCCC4C)c(F)cc3c2=O)c1 (stereo unspecified)	-8.94%
CCCCc1ccc(C(=O)N/C(=C\c2ccc(C)cc2)C(=O)NC2CCCCC2)cc1	-12.6%
Cc1ccc(Cl)cc1N1CCN(C(=O)c2ccc(C)c(-n3c(C)nc4cccnc43)c2)CC1	-0.734%
CCc1nc2ccc(C(=O)N3CCN(c4ccc(Cl)cc4)CC3)cc2nc1CC	27.9%
Cc1cc(C(F)F)n2nc(C(=O)Nc3ccc(F)c(Cl)c3)nc2n1	21.8%
COc1cccc(NC(=O)C2C3C=CC(O3)C2C(=O)NCc2cccnc2)c1 (stereo unspecified)	active: 44.1%
CCc1ccc(-c2nn(CC(=O)NC3CCCCC3)c3c2cnc2ccc(OC)cc23)cc1	16.6%
Cc1ccc(Cl)cc1NC(=O)C(=O)NCCc1sc(-c2ccc(F)cc2)nc1C	-6.42%
COc1ccc(NC(=O)CSC2=Nc3ccccc3C3=NC(CC(=O)NCc4ccc(F)cc4)C(=O)N23)cc1 (stereo unspecified)	2.36%
COc1cccc(NC(=O)/C(C#N)=C\c2cn(Cc3ccc(Cl)cc3)c3ccccc23)c1	7.42%
CCCCCn1c(=O)[nH]c2cc(C(=O)Nc3ccc(F)cc3)ccc2c1=O	-19.3%
CCOC(=O)C1CCN(S(=O)(=O)c2cc(-c3cc(C)no3)ccc2C)CC1	-2.83%
Cc1cccc(NC(=O)CSc2nnc(CNC(=O)c3c(F)cccc3Cl)o2)c1C	-5.54%
CC(C)c1nn2c(=O)cc(COC(=O)c3ccc(NC(=O)CCc4ccccc4)cc3)nc2s1	-6.48%
CC1CCN(CCNC(=O)c2ccc(Cn3c(SCc4ccccc4)nc4cccnc43)cc2)CC1	18.3%
CC(=O)c1ccc(NC(=O)NCCc2c[nH]c3ccccc23)cc1	18.3%
CCc1cccc(NC(=O)CSc2ncc3c(n2)-c2ccccc2N(Cc2ccccc2C)S3(=O)=O)c1	-0.779%
O=C(COc1ccc(F)cc1)Nc1ccc2nc(SCc3ccccc3)sc2c1	-1.28%
CCOc1ccc(-c2cc(C(=O)NCc3ccccc3)c3c(-c4ccc(CC)cc4)[nH]nc3n2)cc1	-0.507%
O=C(CC1(O)C(=O)N(CCc2ccccc2)c2ccc(Br)cc21)c1ccccc1O (stereo unspecified)	-17%
Cc1ccccc1Nc1c2c(nc3nncn13)CCC2	-4.85%

SMILES	inhibition
O=C(COC(=O)/C=C/c1ccco1)NCc1ccccc1Cl	active: 32.6%
COc1ccc(NC(=O)Cc2csc(C)n2)cc1	-19.7%
CC(C)(C)C(=O)Nc1c(C(=O)N2CCN(c3ccc(F)cc3)CC2)oc2ccccc12	2.42%
COc1ccccc1CNC(=O)c1cccc(Nc2nc3ccccc3n3nnnc23)c1	-4.91%
Cc1ccc2nc(N3CCN(c4cccc(C)c4C)CC3)c3nnnn3c2c1	-18.8%
O=C(Nc1cccc(C(F)(F)F)c1)c1ccc(Cn2cc(Br)cn2)o1	active: 35.5%
Cc1nnc(SCC(=O)NCc2ccccc2F)c2nn(-c3ccc(Cl)cc3)c(C)c12	-16.2%
COCCc1nn2c(=O)cc(COC(=O)c3ccc(C(C)(C)C)cc3)nc2s1	-5.84%
Cc1ccc(Cn2ccc(NC(=O)c3cc(-c4ccc(Cl)c(Cl)c4)on3)n2)cc1	6.14%
COc1ccc(CNc2ncnc3c2c(-c2ccccc2)cn3-c2ccccc2)cc1	19.4%
CCN(CC)S(=O)(=O)c1ccc(C(=O)N=c2sc3cccc(OC)c3n2C)cc1	12%
Cc1ccc(S(=O)(=O)c2nc(-c3ccc(Cl)cc3)oc2N2CCCCCC2)cc1	9.52%
Cc1c(-c2cccc(NC(=O)C(C)(C)C)c2)nc2ncccn12	-7.36%
CN1CC(=O)N(CC(=O)Nc2ccc(Cl)c(C(F)(F)F)c2)c2ccccc2C1=O	7.07%
O=C(c1ccc2c(Cl)c3c(nc2c1)CCCC3)N1CCN(c2cccc(Cl)c2)CC1	16.2%
CCc1ccc(-c2ccc(C(=O)Oc3ccc(Br)cc3)cc2)nc1	17.9%
COc1ccc(NC(=O)C2=C(C)Nc3nc(SCc4ccccc4)nn3C2c2cc(OC)ccc2OC)cc1 (stereo unspecified)	-3.22%
Cc1c(C)n(C)c2ccc(C(=O)NCCCN3CCCCC3)cc12	8.32%
Cc1ccc(-c2c(C(=O)NCCc3ccc(Cl)cc3)oc(=O)c3ccccc23)cc1	-10.5%
Cc1cccc(N2C(=O)CCSC23C(=O)N(Cc2ccc(F)cc2)c2ccccc23)c1 (stereo unspecified)	-8.38%
CN(C)c1ccc(NC(=O)Cn2c(SCc3ccccc3F)nc3cccnc32)cc1	-0.0927%

SMILES	inhibition
FC(F)Oc1ccc(NC(=S)NC2CCCCCCC2)cc1	active: 33.3%
Cc1ccc(C)c(S(=O)(=O)c2nnn3c2nc(NCc2ccc4c(c2)OCO4)c2sccc23)c1	-10.7%
COc1ccc(-c2nnc(SCC(=O)Nc3ccc(F)cc3)s2)cc1	-28.3%
CN(C)c1ccc(C(CNS(=O)(=O)c2ccc(Br)cc2)N2CCOCC2)cc1 (stereo unspecified)	2.98%
O=c1c2sc3ccccc3c2n(Cc2ccccc2F)c(=O)n1CCc1ccccc1	-9.69%
Cc1cc(N2CCN(C(c3ccccc3)c3ccc(Cl)cc3)CC2)n2ncnc2n1 (stereo unspecified)	active: 30.7%
CCOC(=O)c1ccccc1NC(=O)Cn1c(=O)n(Cc2ccccc2)c(=O)c2c(C)c(C)sc21	2.64%
CCC(=O)Oc1ccc(-c2nc3ccccc3c(=O)o2)cc1	-4.68%
CCN(c1ccc(Cl)cc1)S(=O)(=O)c1nnc(NC(=O)C(C)C)s1	6.99%
Cc1ccc(-n2ncc(C(=O)N3CCN(Cc4ccccc4)CC3)c2C2CCN(C(=O)OC(C)(C)C)CC2)c(C)c1	2.22%
CC(C)(C)OC(=O)N1CCC(c2c(C(=O)NCc3ccco3)cnn2-c2ccc(F)cc2)CC1	-9.5%
O=C(Nc1ccc2c(c1)N(C1CCCC1)C(=O)c1ccccc1S2)c1ccc(F)cc1	-0.334%
CCN(CC)CCCNC(=O)c1ccc2nc(CCc3ccccc3)oc2c1	21.3%
O=S(=O)(c1cccc(Cl)c1)c1nnn2c1nc(NC1CCCCCC1)c1sccc12	-0.657%
C=CCNCCOc1c(C)cc(C)cc1Cl	active: 31.6%
Cc1ccc(S(=O)(=O)c2c(C)nn(-c3ccccc3)c2OC(=O)c2ccccc2F)cc1	12%
Cc1ccc(C)c(OCC(O)CN2CCC(Cc3ccccc3)CC2)c1 (stereo unspecified)	active: 46.7%
CCN(CC)c1ccc(NC(=O)C2COc3ccc(OC)cc3C2)c(C)c1 (stereo unspecified)	2.65%
CCSc1ncc(Cl)c(C(=O)N2CCN(c3ccc(OC)cc3)CC2)n1	11.9%

Reference: PubChem BioAssay AID485344 (National Center for Advancing Translational Sciences (NCATS), 2010)
